Reference: US20200024319A1 (Amgen, published 2020)

T1: CD25 (IL-2Rα) on the surface of T cells (human, UniProt P01589 22-272)
T1 construct: whole, on cells; also called cell surface CD25
T1 sequence (looked up): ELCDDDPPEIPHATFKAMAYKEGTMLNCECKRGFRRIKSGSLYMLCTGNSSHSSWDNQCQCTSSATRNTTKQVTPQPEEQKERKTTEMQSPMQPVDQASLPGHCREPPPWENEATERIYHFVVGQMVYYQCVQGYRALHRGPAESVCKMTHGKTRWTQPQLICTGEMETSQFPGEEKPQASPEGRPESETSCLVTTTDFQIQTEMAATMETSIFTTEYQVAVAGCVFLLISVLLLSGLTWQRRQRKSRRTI

B1: Fc.WT IgG1Fc(N297G_delK)::G4S::huIL-2(C125A) (Fc fusion)
chain: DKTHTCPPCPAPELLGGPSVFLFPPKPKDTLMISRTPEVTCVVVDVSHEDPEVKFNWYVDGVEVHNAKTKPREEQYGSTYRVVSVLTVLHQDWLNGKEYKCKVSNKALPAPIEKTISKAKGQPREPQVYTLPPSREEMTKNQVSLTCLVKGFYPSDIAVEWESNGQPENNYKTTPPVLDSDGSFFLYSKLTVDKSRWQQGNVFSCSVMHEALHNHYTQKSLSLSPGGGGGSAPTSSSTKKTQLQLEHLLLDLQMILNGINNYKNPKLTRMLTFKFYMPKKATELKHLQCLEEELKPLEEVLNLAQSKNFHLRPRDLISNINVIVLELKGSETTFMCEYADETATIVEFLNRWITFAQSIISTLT
notes: Fc homodimer with two IL-2 domains; also called Fc.WT IL-2; Fc.IL-2(WT, C125A)
B2: Fc.N88D (or Fc.IL-2(N88D)) IgG1Fc(N297G_delK)::G4S::huIL-2(N88D, C125A) (Fc fusion)
chain: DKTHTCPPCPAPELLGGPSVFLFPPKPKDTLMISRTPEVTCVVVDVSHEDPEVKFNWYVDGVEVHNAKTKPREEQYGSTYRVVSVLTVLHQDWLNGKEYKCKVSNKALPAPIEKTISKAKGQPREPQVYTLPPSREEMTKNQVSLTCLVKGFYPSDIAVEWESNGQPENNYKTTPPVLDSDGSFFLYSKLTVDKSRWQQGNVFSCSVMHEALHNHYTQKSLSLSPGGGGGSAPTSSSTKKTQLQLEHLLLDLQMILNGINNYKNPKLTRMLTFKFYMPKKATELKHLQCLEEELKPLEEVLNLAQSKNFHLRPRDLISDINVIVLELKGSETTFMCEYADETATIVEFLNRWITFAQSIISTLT
notes: Fc homodimer with two IL-2 mutein domains
B3: Fc.V91K (or Fc.IL-2(V91K)) IgG1Fc(N297G_delK)::G4S::huIL-2(V91K, C125A) (Fc fusion)
chain: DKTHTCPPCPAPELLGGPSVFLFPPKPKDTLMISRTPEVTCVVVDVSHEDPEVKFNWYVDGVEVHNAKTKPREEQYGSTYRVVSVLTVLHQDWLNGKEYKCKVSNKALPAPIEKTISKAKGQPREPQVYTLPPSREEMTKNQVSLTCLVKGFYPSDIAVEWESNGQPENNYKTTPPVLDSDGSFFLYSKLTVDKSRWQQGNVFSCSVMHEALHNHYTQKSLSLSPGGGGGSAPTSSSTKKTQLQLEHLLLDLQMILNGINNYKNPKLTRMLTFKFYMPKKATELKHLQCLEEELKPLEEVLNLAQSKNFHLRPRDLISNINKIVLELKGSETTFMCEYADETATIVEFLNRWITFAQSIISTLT
notes: as for B2

Experiments:
[1] = molecular target: T1, CD25 (IL-2Rα) on the surface of T cells; assay: flow cytometry, CD3+ CD4+ gate: OKT3-prestimulated PBMC pulsed with 400 pM Fc.IL-2 for 30 min at 37 C, harvested after one wash (T0); anti-human IgG-FITC against anti-CD25-APC
[2] = molecular target: T1, CD25 (IL-2Rα) on the surface of T cells; assay: flow cytometry, CD3+ CD4+ gate: OKT3-prestimulated PBMC pulsed with 400 pM Fc.IL-2 for 30 min at 37 C, washed and cultured for four hours; anti-human IgG-FITC against anti-CD25-APC

Row | Binder | Cell surface Fc.IL-2 (% of CD3+ CD4+ cells in the gate), T0 [1] [%] | Cell surface Fc.IL-2 (% of CD3+ CD4+ cells in the gate), 4 hours [2] [%]
1 | B1 | 23.6 | 3.93
2 | B2 | 29.1 | 16.2
3 | B3 | 37.6 | 17
